# From publication PMC4336329 (PLoS ONE, 2015)
# Among all 310,000 compounds or so, about 14,000 (4.5%) showed an effect of 50% or more. The effect is printed as a negative number. Some of the results follow.
# Target: human ether-à-go-go-related gene (hERG) potassium channel (human, UniProt Q12809)
# Assay: primary screen, population patch clamp on CHO cells stably expressing hERG
# 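Also: peak tail current of the secondary pulse compared with the same well before compound.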
# Sequence of human ether-à-go-go-related gene (hERG) potassium channel (Q12809 whole entry, looked up): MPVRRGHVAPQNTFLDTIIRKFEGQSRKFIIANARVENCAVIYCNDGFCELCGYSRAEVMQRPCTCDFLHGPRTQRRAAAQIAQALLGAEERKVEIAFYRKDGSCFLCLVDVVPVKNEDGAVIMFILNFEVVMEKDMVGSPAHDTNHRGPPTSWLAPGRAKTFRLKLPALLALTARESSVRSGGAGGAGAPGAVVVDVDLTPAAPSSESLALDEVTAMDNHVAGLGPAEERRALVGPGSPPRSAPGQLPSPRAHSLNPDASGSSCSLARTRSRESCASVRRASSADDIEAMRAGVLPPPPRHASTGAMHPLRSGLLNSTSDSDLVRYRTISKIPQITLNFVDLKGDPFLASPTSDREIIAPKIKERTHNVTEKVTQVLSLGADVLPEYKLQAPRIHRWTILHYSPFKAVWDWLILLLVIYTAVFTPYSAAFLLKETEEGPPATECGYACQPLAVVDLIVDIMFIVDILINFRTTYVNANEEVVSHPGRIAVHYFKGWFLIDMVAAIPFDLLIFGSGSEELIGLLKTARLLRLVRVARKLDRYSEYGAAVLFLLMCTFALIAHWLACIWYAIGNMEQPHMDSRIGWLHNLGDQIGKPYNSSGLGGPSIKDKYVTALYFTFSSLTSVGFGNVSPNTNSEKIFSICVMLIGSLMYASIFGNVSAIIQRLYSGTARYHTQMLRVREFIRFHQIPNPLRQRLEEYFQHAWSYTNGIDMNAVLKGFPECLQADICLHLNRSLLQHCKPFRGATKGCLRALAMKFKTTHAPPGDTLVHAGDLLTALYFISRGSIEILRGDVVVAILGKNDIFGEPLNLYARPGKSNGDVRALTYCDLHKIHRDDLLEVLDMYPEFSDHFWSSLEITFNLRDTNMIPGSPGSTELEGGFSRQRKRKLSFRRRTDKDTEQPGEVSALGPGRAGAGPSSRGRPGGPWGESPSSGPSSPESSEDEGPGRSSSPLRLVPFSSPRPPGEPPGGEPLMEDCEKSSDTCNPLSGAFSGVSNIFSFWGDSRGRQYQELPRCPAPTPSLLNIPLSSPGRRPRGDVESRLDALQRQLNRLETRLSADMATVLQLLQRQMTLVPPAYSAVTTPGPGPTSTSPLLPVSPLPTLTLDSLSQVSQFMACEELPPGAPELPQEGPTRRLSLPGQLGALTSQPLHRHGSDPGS
row,Structure (SMILES),"hERG current change (%, negative = inhibition) at 10uM"
1,O=C(c1cc(-c2cccc(Cl)c2)on1)N1CCc2ccccc2C1,24.2%
2,CC1CCc2c(sc(NC(=O)/C=C/c3cccs3)c2C(=O)O)C1 (stereo not drawn),34.3%
3,Cc1ccc(C)c(NC(=S)N(Cc2cccc(Br)c2)CC2CCC(C(=O)O)CC2)c1 (stereo not drawn),2.11%
4,COc1cc(/C=C/C(=O)OCC(=O)N2c3ccccc3CC2C)cc(OC)c1OC (stereo not drawn),-19.4%
5,CCN(CCO)Cc1csc2cccc(Br)c12.Cl,-24.6%
6,CC(C)Nc1ccc(C(CC(N)=O)NC(=O)Cc2cccc3ccccc23)cc1[N+](=O)[O-] (stereo not drawn),-2.02%
7,O=C(CCCCCn1c(=S)[nH]c2ccc(N3CCOCC3)cc2c1=O)NCc1ccccc1,12%
8,CCC(C(=O)OCC(=O)Nc1cccc(C(C)=O)c1)c1ccccc1 (stereo not drawn),2.95%
9,Cc1cc(Br)cc2c(C(=O)Nc3c(C)n(C)n(-c4ccccc4)c3=O)cc(-c3cccs3)nc12,12.1%
10,O=[N+]([O-])c1ccc(O)c(-c2nn[nH]n2)c1,1.52%
11,COc1cccc(-c2ccc3c(N)c(C(=O)NC4CC4)sc3n2)c1,12.8%
12,COc1cc(/C=C/C(=O)O)ccc1OCc1cnc(Cl)s1,5.88%
13,O=C(NC1CCCCCC1)C(=S)N1CCCC1,0.128%
14,O=C(Nc1ccc(S(=O)(=O)Nc2ncccn2)cc1)c1ccc(S(=O)(=O)N2CCCC2)cc1,15.5%
15,Cc1c(N=Cc2cc3c(cc2[N+](=O)[O-])OCO3)cccc1[N+](=O)[O-],6.14%
16,O=c1c2c([nH]c3ccc(Br)cc13)CCCC2,3.36%
17,CC1(C)C(C(=O)NCc2ccco2)C1(C)C,3.59%
18,C[C@@H]1C[C@H]2[C@@H]3C[C@H](F)C4=CC(=O)C(Cl)=C[C@]4(C)[C@@]3(F)[C@@H](O)C[C@]2(C)[C@@]1(O)C(=O)CO,-5.56%
19,CC(=O)Nc1ccc(-c2nn[nH]n2)cc1,4.51%
20,CC(C)(C)C(=O)Nc1nnc(SCC(=O)Nc2ccc3c(c2)OCO3)s1,14.9%
21,CCOCCCNc1ccc(N2C(=O)C3CCCCC3C2=O)cc1[N+](=O)[O-] (stereo not drawn),-2.09%
22,O=S(=O)(Cc1ccccc1)NCC1CCCN(Cc2ccc(F)c(F)c2)C1 (stereo not drawn),-44.2%

row,Structure (SMILES),"hERG current change (%, negative = inhibition) at 10uM"
1,O=S(=O)(Nc1ccc(Cl)cn1)c1ccc(F)cc1,-22.5%
2,O=C(COC(=O)c1cc([N+](=O)[O-])ccc1NCCO)Nc1ccc2c(c1)OCO2,5.75%
3,O=C(NCCCN1CCOCC1)c1ccc(S(=O)(=O)Nc2ccccc2)cc1,28.5%
4,CN1/C(=C\C(=O)COC(=O)c2ccc(O)cc2)C(C)(C)c2ccccc21,9.75%
5,COc1cccc(-n2c(CN3CCN(c4ccccn4)CC3)nc3ccc([N+](=O)[O-])cc3c2=O)c1,-40%
6,CCn1c(SCC(=O)NC2CC2)nnc1-c1ccc(OC)cc1,17.4%
7,Cc1cc(NS(=O)(=O)c2ccc(NC(=O)Cc3ccc([N+](=O)[O-])cc3)cc2)no1,17.7%
8,CN(Cc1ccccc1)Cc1nc2c(c(=O)n(C)c(=O)n2C)n1CCc1ccccc1,-48.3%
9,Cc1cccc(NC(=O)CNC(=O)CN2C(=O)NC3(CCCCC3C)C2=O)c1C (stereo not drawn),28.7%
10,COc1ccc(S(=O)(=O)NCc2ccc(C(=O)N3CCN(c4ccccn4)CC3)cc2)cc1,-13.7%
11,Nc1nnc(SCC(=O)NN2C(=O)NC3(CCCCC3)C2=O)s1,8.44%
12,CN1CCC(O)(c2ccccc2)C2CCCC21 (stereo not drawn),1.25%
13,COc1ccc(NC(=O)Cn2nnc(C(=O)NCc3cccs3)c2N)c(OC)c1,8.52%
14,COc1ccccc1N1CCN(C(=O)c2cccc(S(=O)(=O)N3CCCCCC3)c2)CC1,-77%
15,O=C(Nc1ccnn1C1CCN(C(=O)Cc2ccccc2F)CC1)C1CC1,10.1%
16,CC(C)C(=O)N(Cc1cc2ccccc2[nH]c1=O)C(C)C,-20.8%
17,CC1CC(C)CN(C(=O)c2cc(-c3ccncc3)nc3ccccc23)C1 (stereo not drawn),-35.5%
18,Cc1ccc(Cl)cc1N1C(=O)CC(Sc2ncccn2)C1=O (stereo not drawn),11.3%
19,CC(C)c1ccc(S(=O)(=O)N2CCN(C(C)C(=O)N3CCCC3)CC2)cc1 (stereo not drawn),-11.8%
20,O=C(c1ccco1)N(Cc1cc2ccccc2[nH]c1=O)C1CCCCC1,0.833%
21,COC(=O)c1cccc(N(CC(=O)NC2CCCCC2)C(=O)CNC(=O)c2cccs2)c1,-0.681%
22,O=C(O)C1(NS(=O)(=O)c2ccc(F)c(Cl)c2)CCCCC1,7.65%

row,Structure (SMILES),"hERG current change (%, negative = inhibition) at 10uM"
1,COc1cc(/C=N/NC(=O)C(N)=O)ccc1OCC(=O)N1C(C)CCCC1C (stereo not drawn),1.75%
2,Cc1nn(-c2ccccc2)c2c1C(O)n1c(nc3ccccc31)S2 (stereo not drawn),-2.39%
3,Nc1nc(NC(=O)CCCC(=O)O)nn1-c1ccccc1,9.02%
4,CC(C)CCNC(=O)CNC(=O)c1cccs1,6.48%
5,COc1cccc(C(=O)NCCCNC(=O)c2cccc(OC)c2)c1,1.43%
6,N=c1c(C(=O)NCC2CCCO2)cc2c(=O)n3ccccc3nc2n1Cc1ccc(Cl)cc1 (stereo not drawn),-77.2%
7,O=C(Nc1cccc(-c2csc(Nc3ccc(Cl)cc3)n2)c1)c1ccccc1,19.1%
8,COc1ccccc1-c1nc(SCC(=O)N2CCC(C(N)=O)CC2)n[nH]1,8.48%
9,COc1ccc(CN(CCO)CCO)cc1[N+](=O)[O-].Cl,3.54%
10,O=C1CN(S(=O)(=O)c2cc(C(F)(F)F)ccc2Cl)CCN1,-6.29%
11,COc1cc(/C=N/NC(=O)c2ccoc2C)ccc1O,-3.54%
12,CN(C)C(CNC(=O)c1ccc(NS(=O)(=O)c2cccc([N+](=O)[O-])c2)cc1)c1ccco1 (stereo not drawn),12.4%
13,COc1cc(O)cc2c1C(=O)O[C@@H](C)CCCC(=O)CCCCC2,0.125%
14,CCN(CC)C(=O)Cn1cnc([N+](=O)[O-])n1,12.1%
15,NC(=O)Nc1ccc(Nc2ccccc2)cc1,-15.3%
16,FC(F)(F)c1ccccc1/C=N/n1c(C2CCCCC2)n[nH]c1=S,22.4%
17,CCOc1cc(/C=N/n2nnnc2N)ccc1OCc1c(C)no[n+]1[O-],5.43%
18,CC1(C)CC(=O)C=C(Nc2cc(-c3ccccc3)[nH]n2)C1,-11.2%
19,N#CCCn1cc(C(=O)Nc2ccccc2Br)c(-c2cccs2)n1,-22.8%
20,COc1cc(OC)cc(-n2nc(C(=O)N3CC(C)CC(C)C3)c3ccccc3c2=O)c1 (stereo not drawn),-43.3%
21,CC(C)c1cc(C(=O)O)on1,-3.21%
22,O=c1[nH]c2cc(Cl)c([N+](=O)[O-])nc2[nH]1,1.62%

row,Structure (SMILES),"hERG current change (%, negative = inhibition) at 10uM"
1,COc1cccc(Nc2nc(-c3sc(NC(=O)c4ccccc4)nc3C)cs2)c1,21%
2,COc1ccccc1NC(=O)C(C)NS(=O)(=O)c1ccc(Cl)cc1 (stereo not drawn),-0.716%
3,CCc1nccn1S(=O)(=O)c1ccc2ccccc2c1,9.38%
4,COc1ccc(NC(=O)c2cc(-c3ccco3)nc3ccccc23)cn1,2.31%
5,CC1CCc2ccc(F)cc2N1S(=O)(=O)c1cccs1 (stereo not drawn),2.36%
6,Cc1oc2cc([N+](=O)[O-])c(O)c([N+](=O)[O-])c2c1C(=O)c1ccc(Br)cc1,28.3%
7,Cc1cccc(CCN(Cc2cc3cccc(C)c3[nH]c2=O)C(=O)N2CCOCC2)c1,-29.4%
8,CCC(=O)c1cn(CC(=O)Nc2c(C)cccc2C)c2ccccc12,19.2%
9,COc1cc(OC)cc(C(=O)Nn2cnnc2)c1,10.2%
10,CC1CCN(S(=O)(=O)c2ccc(NC(=O)CCN3C(=O)C4CC=CCC4C3=O)cc2)CC1 (stereo not drawn),-25.3%
11,CCNCc1cc2cc(C)ccc2[nH]c1=O,4.86%
12,Cc1ccc(-n2[nH]c(C)c(C=Nc3cc(C)ccn3)c2=O)cc1,-1.12%
13,Cc1ccccc1NC(=O)c1ccc(NC(=O)c2ccco2)cc1,4.77%
14,CCc1c(C(=O)Nc2ccccc2)c(C)[nH]c(=S)c1C#N,27.5%
15,Nc1nonc1-n1nnc(C(=O)N/N=C/c2cccnc2)c1CSc1ccc(Cl)cc1,0.312%
16,O=C(NNC(=O)C1CC(c2cccnc2)=NO1)Nc1cccc(F)c1 (stereo not drawn),-5.54%
17,C=CCn1c(SCC(=O)c2cccs2)nc2sc(CC)cc2c1=O,-4.31%
18,CC(C)CNC(=O)c1ccccc1Oc1ccccc1,-2.63%
19,CC(C)c1ccc(N(CC(=O)NC2CCCCC2)C(=O)CCC(=O)Nc2ccccn2)cc1,-8.38%
20,NS(=O)(=O)c1ccc(NC(=S)N2CCN(C(=O)C3CCCO3)CC2)cc1 (stereo not drawn),11.6%
21,CSCC[C@H](NC(=O)N1CCn2c1nc1ccccc12)C(=O)NCc1ccc(C)cc1,-13.3%
